# Assay results: the supplement of paper PMC8728848
# Some of the results follow.
# B1: Blon2468mut (Bifidobacterium longum) (protein)
# chain: MTFIKQMMPRYVASMTAGIVAAAMAATCAFAPVANADAVSPTQETIQSTGRHFMVYYRAWRDVTMKGVNTDLPDDNWISMYDIPYGVDVVNIFSYVPSGQEEQAQPFYDKLKSDYAPYLHSRGIKLVRGIDYTGVAVNGFRTFMKEQNKTESEATEADYDAYAKQVIDKYMISVGLDGLDIDMQAHPNDADVKISDNVIRALSKHIGPKSAKPDTTMFLYDTNGSYLNPFKNVAECFDYVAYQQYGSSSDRTARAAADYQPYIGNEFVPGLTFPEEGDMNNRWYDATEPYEESHFYQVASYVREHNLGGMFVYALDRDGRNYDEDLRRIVPSNLLWTKTAIAESEGMALDTAKTAANHYLDRMSLRQVIDDNAASADKARDMVGKAANLYETNKAVLGGDYGEGFSNTYDPTLEAGLLGIDISVLQQQIDKSSEIIGADTAESDAKTALRMARDAAIDGLTGKIYTADQVSAWSQALKAALDATVPVPTPDSTDQNGNRDKVTNHKVQGQPKQLSATGISTDIIVAVGVTLAIAGVALSLSRKLS
# What was measured:
# Assay in all cases: glycan array binding signal (z-score within array); higher = stronger binding
# Details in all cases: glycan notation: IUPAC condensed, linker removed
# [1] = target: Fuc(a1-3)[Gal(b1-4)]Glc6S
# In short: (§1)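 The binding signal is a Z-score computed within each array and averaged over linkers. Arrays of the same protein sequence at different concentrations or buffers were also averaged together. Data originate from 3228 arrays in the Consortium for Functional Glycomics database, kept only where the protein sequence was available.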
# [2] = target: Fuc(a1-3)[Gal(b1-4)]GlcNAc
# In short: as §1
# [3] = target: Fuc(a1-3)[Gal(b1-4)]GlcNAc(b1-2)Man
# In short: as §1
# [4] = target: Fuc(a1-3)[Gal(b1-4)]GlcNAc(b1-2)Man(a1-3)[Fuc(a1-3)[Gal(b1-4)]GlcNAc(b1-2)Man(a1-6)]Man(b1-4)GlcNAc(b1-4)GlcNAc
# In short: as §1
# [5] = target: Fuc(a1-3)[Gal(b1-4)]GlcNAc(b1-2)Man(a1-3)[Fuc(a1-3)[Gal(b1-4)]GlcNAc(b1-2)Man(a1-6)]Man(b1-4)GlcNAc(b1-4)[Fuc(a1-6)]GlcNAc
# In short: as §1
# [6] = target: Fuc(a1-3)[Gal(b1-4)]GlcNAc(b1-3)Gal(b1-3)[Fuc(a1-4)]GlcNAc
# In short: as §1
# [7] = target: Fuc(a1-3)[Gal(b1-4)]GlcNAc(b1-3)GalNAc
# In short: as §1
# [8] = target: Fuc(a1-3)[Gal(b1-4)]GlcNAc(b1-4)Gal(b1-4)[Fuc(a1-3)]GlcNAc
# In short: as §1
# [9] = target: Fuc(a1-3)[Gal(b1-4)]GlcNAc(b1-4)Gal(b1-4)[Fuc(a1-3)]GlcNAc(b1-4)Gal(b1-4)[Fuc(a1-3)]GlcNAc
# In short: as §1
# [10] = target: Fuc(a1-3)[Gal(b1-4)]GlcNAc(b1-6)GalNAc
# In short: as §1
# [11] = target: Fuc(a1-3)[Gal(b1-4)]GlcNAc(b1-6)[Gal(b1-3)GlcNAc(b1-3)]Gal(b1-4)Glc
# In short: as §1
# [12] = target: Fuc(a1-3)[Gal(b1-4)]GlcNAc6S
# In short: as §1
# [13] = target: Fuc(a1-3)[Gal3S(b1-4)]Glc
# In short: as §1
# [14] = target: Fuc(a1-3)[Gal3S(b1-4)]GlcNAc
# In short: as §1
# [15] = target: Fuc(a1-3)[Gal3S(b1-4)]GlcNAc6S
# In short: as §1
# [16] = target: Fuc(a1-3)[GalNAc(b1-4)]GlcNAc
# In short: as §1
# [17] = target: Fuc(a1-3)[GalNAc(b1-4)]GlcNAc6S
# In short: as §1
# Fuc(a1-4)GlcNAc = target: Fuc(a1-4)GlcNAc
# In short: as §1
# Fuc(b1-3)GlcNAc = target: Fuc(b1-3)GlcNAc
# In short: as §1
# Gal(a1-2)Gal = target: Gal(a1-2)Gal
# In short: as §1
# Gal(a1-3)Gal = target: Gal(a1-3)Gal
# In short: as §1
# Gal(a1-3)Gal(b1-3)GlcNAc = target: Gal(a1-3)Gal(b1-3)GlcNAc
# In short: as §1
# [18] = target: Gal(a1-3)Gal(b1-3)GlcNAc(b1-2)Man
# In short: as §1
# [19] = target: Gal(a1-3)Gal(b1-3)GlcNAc(b1-2)Man(a1-3)[Gal(a1-3)Gal(b1-3)GlcNAc(b1-2)Man(a1-6)]Man(b1-4)GlcNAc(b1-4)GlcNAc
# In short: as §1
# [20] = target: Gal(a1-3)Gal(b1-3)GlcNAc(b1-3)GalNAc
# In short: as §1
# [21] = target: Gal(a1-3)Gal(b1-3)GlcNAc(b1-6)GalNAc
# In short: as §1
# [22] = target: Gal(a1-3)Gal(b1-3)[Fuc(a1-4)]GlcNAc(b1-2)Man(a1-3)[Gal(a1-3)Gal(b1-3)[Fuc(a1-4)]GlcNAc(b1-2)Man(a1-6)]Man(b1-4)GlcNAc(b1-4)GlcNAc
# In short: as §1
# Gal(a1-3)Gal(b1-4)Glc = target: Gal(a1-3)Gal(b1-4)Glc
# In short: as §1
# Gal(a1-3)Gal(b1-4)GlcNAc = target: Gal(a1-3)Gal(b1-4)GlcNAc
# In short: as §1
# [23] = target: Gal(a1-3)Gal(b1-4)GlcNAc(b1-2)Man
# In short: as §1
binder,measurement,setting,value
B1,glycan array binding signal (z-score),[1],-0.085
same,glycan array binding signal (z-score),[2],-0.066
same,glycan array binding signal (z-score),[3],-0.022
same,glycan array binding signal (z-score),[4],-0.077
same,glycan array binding signal (z-score),[5],-0.086
same,glycan array binding signal (z-score),[6],-0.015
same,glycan array binding signal (z-score),[7],-0.029
same,glycan array binding signal (z-score),[8],-0.075
same,glycan array binding signal (z-score),[9],-0.049
same,glycan array binding signal (z-score),[10],-0.059
same,glycan array binding signal (z-score),[11],-0.088
same,glycan array binding signal (z-score),[12],-0.068
same,glycan array binding signal (z-score),[13],-0.062
same,glycan array binding signal (z-score),[14],-0.064
same,glycan array binding signal (z-score),[15],-0.087
same,glycan array binding signal (z-score),[16],-0.056
same,glycan array binding signal (z-score),[17],-0.062
same,glycan array binding signal (z-score),Fuc(a1-4)GlcNAc,-0.06
same,glycan array binding signal (z-score),Fuc(b1-3)GlcNAc,-0.083
same,glycan array binding signal (z-score),Gal(a1-2)Gal,-0.088
same,glycan array binding signal (z-score),Gal(a1-3)Gal,-0.082
same,glycan array binding signal (z-score),Gal(a1-3)Gal(b1-3)GlcNAc,-0.074
same,glycan array binding signal (z-score),[18],-0.087
same,glycan array binding signal (z-score),[19],-0.034
same,glycan array binding signal (z-score),[20],-0.082
same,glycan array binding signal (z-score),[21],-0.1
same,glycan array binding signal (z-score),[22],-0.057
same,glycan array binding signal (z-score),Gal(a1-3)Gal(b1-4)Glc,-0.034
same,glycan array binding signal (z-score),Gal(a1-3)Gal(b1-4)GlcNAc,-0.084
same,glycan array binding signal (z-score),[23],-0.088
